# The campaign covered roughly 310,000 compounds. About 2,200 (0.71%) showed an effect of 50% or more. Effects have a minus sign here. The list shows a part of the results.
# Biological target: human ether-à-go-go-related gene (hERG) potassium channel (human, UniProt Q12809)
# Test: primary screen, population patch clamp on CHO cells stably expressing hERG
# Sequence of human ether-à-go-go-related gene (hERG) potassium channel (Q12809 whole entry, looked up): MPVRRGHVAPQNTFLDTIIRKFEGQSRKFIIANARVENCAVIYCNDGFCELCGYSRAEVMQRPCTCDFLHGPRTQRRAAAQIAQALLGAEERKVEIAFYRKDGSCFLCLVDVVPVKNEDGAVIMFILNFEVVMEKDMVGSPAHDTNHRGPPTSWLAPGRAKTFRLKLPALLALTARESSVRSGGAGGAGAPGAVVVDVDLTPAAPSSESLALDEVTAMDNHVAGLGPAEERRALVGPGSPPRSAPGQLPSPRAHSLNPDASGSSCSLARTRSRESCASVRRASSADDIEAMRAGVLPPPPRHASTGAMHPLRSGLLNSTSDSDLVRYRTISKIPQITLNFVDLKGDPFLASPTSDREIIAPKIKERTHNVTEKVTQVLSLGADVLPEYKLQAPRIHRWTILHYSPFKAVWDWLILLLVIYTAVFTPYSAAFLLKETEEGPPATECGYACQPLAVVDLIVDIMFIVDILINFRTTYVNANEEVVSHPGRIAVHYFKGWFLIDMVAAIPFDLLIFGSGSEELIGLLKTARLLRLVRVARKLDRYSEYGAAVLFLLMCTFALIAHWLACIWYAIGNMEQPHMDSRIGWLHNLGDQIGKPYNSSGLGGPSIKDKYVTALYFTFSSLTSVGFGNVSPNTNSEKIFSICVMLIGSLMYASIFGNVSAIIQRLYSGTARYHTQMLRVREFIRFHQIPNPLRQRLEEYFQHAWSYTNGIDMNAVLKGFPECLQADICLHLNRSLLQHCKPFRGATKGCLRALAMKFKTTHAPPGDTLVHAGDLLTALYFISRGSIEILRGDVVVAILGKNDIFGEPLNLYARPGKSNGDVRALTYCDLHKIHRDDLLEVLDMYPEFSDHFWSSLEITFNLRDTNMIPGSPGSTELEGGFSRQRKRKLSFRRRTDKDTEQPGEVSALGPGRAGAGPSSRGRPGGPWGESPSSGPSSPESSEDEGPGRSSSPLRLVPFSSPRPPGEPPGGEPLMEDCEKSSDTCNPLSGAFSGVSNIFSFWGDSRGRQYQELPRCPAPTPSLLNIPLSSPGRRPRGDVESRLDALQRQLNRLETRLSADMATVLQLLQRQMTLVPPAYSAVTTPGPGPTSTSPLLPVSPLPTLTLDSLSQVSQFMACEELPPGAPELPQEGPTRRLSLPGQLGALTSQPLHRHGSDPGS
row,Structure (SMILES),"hERG current change (%, negative = inhibition) at 1uM"
1,Cc1ccc2[nH]c(C)c(CCNC(=O)c3c(N)no[n+]3[O-])c2c1,7.47%
2,COc1ccccc1-c1nn2c(-c3ccco3)nnc2s1,-9.47%
3,COc1ccc(CCNc2nc(-c3cccnc3)cs2)cc1OC,23.6%
4,CCN1CCN(C(=S)c2ccc(SC)cc2)CC1,-18%
5,CC12CCC(=O)N1c1c(sc3nc(N4CCOCC4)c4c(c13)CCCC4)C(=O)N2 (centres unmarked),-11%
6,CN(C)CCCNC(=O)c1cc2c3ccccc3n(C)c2s1,-16%
7,O=C(Nc1cc(S(=O)(=O)N2CCCCCC2)ccc1OCC(F)(F)F)c1ccc(=O)[nH]c1,3.09%
8,COC(=O)[C@H](C)NC(=O)COc1ccccc1,-0.549%
9,Cc1cc(NC(=O)c2cc3n(n2)C(C(F)(F)F)CC(c2ccco2)N3)no1 (centres unmarked),9.78%
10,COC(=O)c1c(NC(=O)CN2C(=O)NC3(CCCCC3C)C2=O)sc2c1CCC2 (centres unmarked),-1.42%
11,Cc1cnc(C(=O)OCC(=O)Nc2ccc(Cl)cc2Cl)cn1,-3.28%
12,CCC(C)c1ccc(OCC(=O)Nc2ccc(Cl)cn2)cc1 (centres unmarked),-0.712%
13,COc1ccc(S(=O)(=O)N(CC(=O)NC2CCCCC2)c2ccc(F)cc2)cc1,14.6%
14,CC1CCN(C(=O)C2CCCCN2S(=O)(=O)c2cccc([N+](=O)[O-])c2)CC1 (centres unmarked),9.93%
15,CCCc1cc2c(cc1NC(=O)c1ccccc1F)OCO2,3.76%
16,Cc1ccccc1NCc1ccc(O)c2ncccc12,8.46%
17,CCOc1ccc(C(=O)NCc2ccco2)cc1OC,11.5%
18,CCn1cc(C(=O)NCc2ccco2)c(=O)c2cc(F)c(N3CCN(C(=O)c4ccco4)CC3)cc21,-0.391%
19,O=C(NC1CCN(C(=O)N2c3ccccc3Sc3ccccc32)CC1)c1ccccc1F,11.2%
20,Cc1c(CCC(=O)O)c(=O)oc2cc3occ(C(C)(C)C)c3cc12,10.5%
21,NC(=O)N/N=C/c1cn(-c2ccccc2)nc1-c1ccccc1,6.3%
22,CCC(=O)Nc1ccc2nc(C)n(Cc3ccccc3Cl)c(=O)c2c1,6.02%

row,Structure (SMILES),"hERG current change (%, negative = inhibition) at 1uM"
1,Cc1ccccc1OC(C)C(=O)NCCC1=CCCCC1 (centres unmarked),6.21%
2,CCc1ccccc1NC(=O)CCOc1ccccc1,12.5%
3,Cc1nn(C)c(C)c1S(=O)(=O)N1CCCC(C(=O)N2CCN(c3ccc(Cl)cc3)CC2)C1 (centres unmarked),-17.6%
4,CCOc1ccc2nc(COC(=O)c3ccncc3)c(C(=O)c3ccccc3)[n+]([O-])c2c1,10%
5,O=C(Cn1cnc([N+](=O)[O-])n1)N/N=C/c1ccc2ccccc2c1,7.24%
6,Cn1c(=O)c2c(ncn2CC(=O)OCC(=O)NC(c2ccccc2)c2ccccc2)n(C)c1=O,-3.57%
7,COc1ccc(N2CCN(C(=O)Cn3nnc(-c4ccccc4N)n3)CC2)cc1,9.76%
8,O=C(COC(=O)c1ccc(O)cc1O)Nc1cc(-c2ccccc2)nn1-c1ccccc1,11.2%
9,CC(C)CCNC(=O)c1ccc(C2SCC(=O)N2Cc2ccco2)cc1 (centres unmarked),-11.1%
10,Cl.NCCCCCC(=O)N/N=C/c1coc2ccccc2c1=O,11.8%
11,CC(NC(=O)CSc1nnc(-c2cc3cc(Cl)ccc3o2)n1C)c1ccccc1 (centres unmarked),10.5%
12,COc1cc(NC(=O)CCN2CCN(C)CC2)cc(OC)c1,13.3%
13,Cc1cc(=O)oc2cc(OCC(=O)NCc3ccco3)ccc12,2.19%
14,COc1ccc(C(=O)CSc2nnc(-c3ccco3)n2CC2CCCO2)cc1 (centres unmarked),1.01%
15,O=C(NCCc1ccccc1)C1(c2ccccc2)CC1(Cl)Cl (centres unmarked),5.32%
16,COc1cc(N=CC2=C(O)c3ccccc3C2=O)cc(OC)c1,8.62%
17,COc1ccc2[nH]c(C)c(CN3CCC(C)CC3)c(=O)c2c1,-18%
18,O=C(c1ccc(Br)s1)N1CCN(c2ncccn2)CC1,-15.4%
19,COCCCNC(=O)Cn1ncc2c(=O)oc3ccccc3c21,5.96%
20,COc1cccc(CNC(=O)CCS(=O)(=O)Cc2ccc(C)cc2)c1,30.3%
21,COc1ccc(N(C(=O)Cn2nnc3ccccc32)C2(C(=O)NC3CCCC3)CCCCC2)cc1,-0.0987%
22,C=CCNC(=O)CN1CCC(c2nc3ccccc3[nH]2)CC1,16.5%

# Source: PMC4336329 (PLoS ONE, 2015)
